# Source: PubChem BioAssay AID1347055 (National Center for Advancing Translational Sciences (NCATS), 2019)
# The whole screen tested about 54,000 compounds, of which about 120 (0.22%) were called active. Inconclusive means that the source gave no clear call. Such entries were picked first, then a sample of the others. Calls come from the whole dose curve; as a rule, active = well fitted inhibition curve with a large enough effect; inconclusive = small, poorly fitted or top-dose-only effect, or effect the other way; inactive = flat fitted curve, though single readings scatter. No potency is given beside an inconclusive call; the fits are too rough.
# Target: Fumarate hydratase, mitochondrial (Homo sapiens) (UniProt P07954)
# Experiment: Identification of activators of human fumarate hydratase by quantitative high-throughput screening; note: the screen sought activators but most active calls are inhibition curves; nearly all actives have a fitted effect of over 45% in size
# Details: FH coupled MDH/diaphorase resazurin fluorescence, 15 min; series mostly up to 79.9 µM
# Potency is the fitted concentration of half-maximal effect; tags give direction and shape of the fitted curve.
# Chain of UniProt P07954 (P07954 whole entry, looked up): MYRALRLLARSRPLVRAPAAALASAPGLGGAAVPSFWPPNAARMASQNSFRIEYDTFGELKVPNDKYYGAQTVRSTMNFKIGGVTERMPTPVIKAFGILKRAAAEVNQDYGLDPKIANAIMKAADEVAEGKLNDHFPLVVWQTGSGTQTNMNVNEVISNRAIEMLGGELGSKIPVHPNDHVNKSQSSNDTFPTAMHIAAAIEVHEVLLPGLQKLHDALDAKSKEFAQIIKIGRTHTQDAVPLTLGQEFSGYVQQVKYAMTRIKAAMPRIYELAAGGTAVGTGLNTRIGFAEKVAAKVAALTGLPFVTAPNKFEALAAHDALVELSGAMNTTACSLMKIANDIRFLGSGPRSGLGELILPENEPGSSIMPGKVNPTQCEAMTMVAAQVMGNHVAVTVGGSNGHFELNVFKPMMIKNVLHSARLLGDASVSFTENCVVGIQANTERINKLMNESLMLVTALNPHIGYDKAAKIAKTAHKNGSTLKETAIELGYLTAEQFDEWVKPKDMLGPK
row,Structure (SMILES),Potency
1,COc1cccc(OCc2nc3ccccc3n2CCOc2ccccc2)c1,"inconclusive [inhibitor, single point]"
2,CCOc1ccc(-n2c(C)nc3cc(C(=O)NCCC4=CCCCC4)ccc32)cc1,"inconclusive [inhibitor, partial curve, poor fit]"
3,CCC1CCCCN1CC(=O)N1CCCc2c1c(=O)oc1ccc(OCc3ccccc3)cc21 (centres undefined),"inconclusive [inhibitor, single point]"
4,COc1ccc(-c2nc(Cn3c(SCc4ccc(C)cc4)nc4cccnc43)c(C)o2)cc1OC,"inconclusive [inhibitor, partial curve, poor fit]"
5,CCOc1ccc(OCC)c(S(=O)(=O)N2CCN(c3cccc(C)c3C)CC2)c1,"inconclusive [inhibitor, partial curve, poor fit]"
6,COc1ccc(S(=O)(=O)N2CCC(n3c(C(F)(F)F)nc4cccnc43)CC2)cc1OC,"inconclusive [inhibitor, single point]"
7,CCc1ccc(C(=O)COC(=O)C(Cc2c[nH]c3ccccc23)NC(=O)c2ccc(Br)cc2)cc1 (centres undefined),"inconclusive [inhibitor, partial curve, poor fit]"
8,CCOc1ccc(C2=NC(c3cccs3)=Nc3ccc(C(C)C)cc3N2)cc1,"inconclusive [inhibitor, single point]"
9,COc1ccc(-c2nc3sc(CCNC(=O)c4cc(Cl)ccc4OC)c(C)n3n2)cc1,"inconclusive [inhibitor, partial curve]"
10,Cc1ccc(C(C)(C)C)c(OCC(=O)NCCc2nc3ccccc3[nH]2)c1,inactive
11,CCOC(=O)c1cc(-c2ccccc2)n(CC(=O)N(C)c2ccc(OC)cc2)c1C,"inconclusive [inhibitor, single point]"
12,CCCN(c1ccccc1CC)S(=O)(=O)c1ccc2c(c1)CC(C)N2C(=O)C1CC1 (centres undefined),"inconclusive [inhibitor, partial curve, poor fit]"
13,CCS(=O)(=O)N1CCc2cc(C(=O)NCCc3ccccc3)ccc21,inactive
14,C[C@H]1[C@H](C)CC[C@]2(C(=O)O)CC[C@]3(C)C(=CCC4[C@@]5(C)C[C@@H](O)[C@H](O)C(C)(C)C5CC[C@]43C)[C@H]12 (some centres undefined),inactive
15,Cc1ccc(Cl)cc1NC(=O)CSC1=Nc2ccccc2C2=NC(Cc3ccccc3)C(=O)N12 (centres undefined),"inconclusive [inhibitor, partial curve, poor fit]"
16,CCc1ccc(NC(=O)CN2C(=O)C3(SCC(=O)N3c3ccccc3)c3ccccc32)cc1 (centres undefined),"inconclusive [inhibitor, partial curve, poor fit]"
17,Cc1ccc(CNC(=O)c2ccc3c(c2)nc(C)n3-c2cc(C)cc(C)c2)cc1,"inconclusive [inhibitor, single point]"
18,COc1ccc(OC)c(NC(=O)Cn2c(=O)n(Cc3ccccc3)c(=O)c3ccccc32)c1,"inconclusive [inhibitor, partial curve, poor fit]"
19,COc1cc(OC)cc(C(=O)Nc2ccc3nc(N4CCCCC4)cc(C)c3c2)c1,"inconclusive [inhibitor, partial curve, poor fit]"
20,COc1cccc2c1Oc1ncccc1N(C(=O)Nc1ccc(F)c(Cl)c1)C2,"inconclusive [inhibitor, single point]"

row,Structure (SMILES),Potency
1,COc1ccc(NC(=O)c2ccc(-c3nc(CSc4ccccc4)c(C)o3)cc2)cc1OC,"inconclusive [inhibitor, single point]"
2,Cc1cc(C)cc(NS(=O)(=O)c2ccc3c(c2)NC(=O)C(C)S3)c1 (centres undefined),"inconclusive [inhibitor, single point]"
3,CCOc1cc(CNc2ccc(O)cc2)ccc1OCc1ccc(Cl)cc1,"inconclusive [inhibitor, partial curve]"
4,CC(C)(C)c1ccc2c(c1)CC[C@H]2NC(=O)Nc1cccc2[nH]ncc12,inactive
5,CN(C)c1ccc(NC(=O)CCSc2nc(-c3ccco3)cc(C(F)(F)F)n2)cc1,"inconclusive [inhibitor, single point]"
6,CC(=O)N1c2ccc(S(=O)(=O)N3CCN(c4ccc(C)cc4C)CC3)cc2CC1C (centres undefined),"inconclusive [inhibitor, partial curve, poor fit]"
7,Brc1c(Br)c(Br)c2n[nH]nc2c1Br,active: 31.6 µM
8,CC(C)(C)C1CCc2oc3ccc(NS(=O)(=O)c4cc(Cl)ccc4Cl)cc3c2C1 (centres undefined),inactive
9,Cc1ccc(NS(=O)(=O)c2ccc3[nH]c4c(c3c2)CCCCCC4)cc1Cl,"inconclusive [inhibitor, single point]"
10,CC(C)c1ccc(NC(=O)CN2C(=O)COc3ccc(S(=O)(=O)Nc4ccccc4)cc32)cc1,"inconclusive [inhibitor, single point]"
11,CC1CC(C(O)C(C)(C)O)OC2CC3(C)C4(C)CCC5C(C)(C)C(=O)CCC5(C)C4CCC3(O)C12O (centres undefined),inactive
12,CSc1cccc(NC(=O)CN(c2ccccc2)S(=O)(=O)N(C)C)c1,"inconclusive [inhibitor, partial curve, poor fit]"
13,Cc1c(C)n(Cc2ccc(Cl)cc2)c2ccc(C(=O)NCCc3ccc(S(N)(=O)=O)cc3)cc12,"inconclusive [inhibitor, single point]"
14,Oc1ccccc1O,"inconclusive [inhibitor, partial curve]"
15,O=C(CSc1nccn1Cc1ccco1)Nc1cccc(F)c1,inactive
16,CCc1c(C)c2ccc3c(c2oc1=O)CN(Cc1ccccc1)CO3,inactive
17,C=CC1(C)C=C2CC[C@H]3[C@@](C)(C(=O)O)CCC[C@]3(C)C2CC1 (some centres undefined),inactive
18,NCCOc1cc(C(=O)Nc2cc(OCCN)c3ccccc3n2)nc(C(=O)Nc2cc(OCCN)c3ccccc3n2)c1,"inconclusive [activator, single point]"
19,COc1ccc(C(=O)O)cc1Nc1nc2ccc(C)cc2n2cnnc12,"inconclusive [inhibitor, partial curve]"
